Results taken from US20200016266A1 (INIS BIOTECH, published 2020).

How the values were obtained:
Assay in all cases: anti-HA bead immunoprecipitation of KDR-HA from HEK 293T lysates, incubation with Gal1 and Alexa Fluor 488 anti-Gal1 Ab, flow cytometry; % relative to KDR-HA WT
Ig5 = target: T1, Ig5 (Homo sapiens, UniProt P35968)
T1 construct: full length, HA-tagged, expressed in HEK 293T cells; mutant named only by its domain on the sheet; also called KDR-HA-Ig-5

Ig6 = target: T2, Ig6 (Homo sapiens, UniProt P35968)
Sequence of Ig6 (P35968 other isoform, or with tags, fused parts or gaps limits assumed): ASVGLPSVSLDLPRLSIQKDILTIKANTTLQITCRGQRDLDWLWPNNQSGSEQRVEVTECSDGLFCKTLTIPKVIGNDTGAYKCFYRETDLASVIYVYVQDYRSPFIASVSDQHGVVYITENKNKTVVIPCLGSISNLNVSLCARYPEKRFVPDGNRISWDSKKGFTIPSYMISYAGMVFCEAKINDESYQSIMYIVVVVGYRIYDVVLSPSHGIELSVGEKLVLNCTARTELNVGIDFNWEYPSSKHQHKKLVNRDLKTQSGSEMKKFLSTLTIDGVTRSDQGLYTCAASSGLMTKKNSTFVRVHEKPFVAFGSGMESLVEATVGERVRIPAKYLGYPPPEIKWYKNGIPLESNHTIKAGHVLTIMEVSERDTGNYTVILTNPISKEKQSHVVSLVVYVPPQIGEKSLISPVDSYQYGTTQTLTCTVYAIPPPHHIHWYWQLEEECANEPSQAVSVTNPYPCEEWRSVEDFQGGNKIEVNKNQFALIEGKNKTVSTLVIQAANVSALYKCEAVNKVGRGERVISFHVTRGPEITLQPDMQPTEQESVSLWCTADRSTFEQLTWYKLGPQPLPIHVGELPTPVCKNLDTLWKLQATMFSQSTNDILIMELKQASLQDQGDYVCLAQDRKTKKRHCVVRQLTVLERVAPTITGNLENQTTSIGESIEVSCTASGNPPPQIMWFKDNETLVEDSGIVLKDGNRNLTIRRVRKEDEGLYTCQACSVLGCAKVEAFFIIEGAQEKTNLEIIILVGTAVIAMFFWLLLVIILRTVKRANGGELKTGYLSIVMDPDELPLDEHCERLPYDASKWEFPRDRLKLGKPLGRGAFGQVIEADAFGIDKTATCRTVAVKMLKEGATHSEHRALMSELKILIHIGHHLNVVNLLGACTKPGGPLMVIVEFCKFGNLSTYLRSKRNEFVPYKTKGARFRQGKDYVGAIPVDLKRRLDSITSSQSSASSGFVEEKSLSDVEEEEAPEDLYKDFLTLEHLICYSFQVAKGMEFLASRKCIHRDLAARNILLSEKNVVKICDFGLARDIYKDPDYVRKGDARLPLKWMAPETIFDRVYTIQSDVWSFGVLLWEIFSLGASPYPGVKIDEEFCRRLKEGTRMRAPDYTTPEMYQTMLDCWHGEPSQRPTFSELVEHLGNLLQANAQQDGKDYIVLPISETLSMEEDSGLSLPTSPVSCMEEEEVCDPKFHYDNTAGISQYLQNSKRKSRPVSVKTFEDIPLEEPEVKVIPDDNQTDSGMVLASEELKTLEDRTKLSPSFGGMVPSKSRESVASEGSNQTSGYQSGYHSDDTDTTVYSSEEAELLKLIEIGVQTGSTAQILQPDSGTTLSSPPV
T2 construct: full length, HA-tagged, expressed in HEK 293T cells; mutant named only by its domain on the sheet; also called KDR-HA-Ig-6

[1] = target: T3, HA-tagged human VEGFR2 (KDR) mutant devoid of N-glycosylation sites in Ig-like domain 3 (N245Q, N318Q), … (human, UniProt P35968)
T3 construct: mature; Expressed in HEK-293T cells and captured from them on anti-HA fluorescent beads; I took it as full length, as for the wild-type KDR-HA; also called Ig-3 mutant; VEGFR2 Ig-3 (N245Q, N318Q)

[2] = target: T4, HA-tagged human VEGFR2 (KDR) mutant devoid of N-glycosylation sites in Ig-like domain 4 (N374Q, N395Q), … (human, UniProt P35968)
T4 construct: mature; Expressed in HEK-293T cells and captured from them on anti-HA fluorescent beads; I took it as full length, as for the wild-type KDR-HA; also called Ig-4 mutant; VEGFR2 Ig-4 (N374Q, N395Q)

[3] = target: T5, HA-tagged human VEGFR2 (KDR) mutant devoid of N-glycosylation sites in Ig-like domain 7 (N675Q, N704Q, … (human, UniProt P35968))
T5 construct: mature; Expressed in HEK-293T cells and captured from them on anti-HA fluorescent beads; I took it as full length, as for the wild-type KDR-HA; also called Ig-7 mutant; VEGFR2 Ig-7 (N675Q, N704Q, N721Q)

Measured: binding result

Sequence of Ig5 (P35968 20-1356 N511Q/N523Q limits assumed): as the sequence (P35968 other isoform, or with tags, fused parts or gaps limits assumed) above, with N492Q, N504Q, Q561N, Q594N, Q600N, Q612N counted along it

B1: Galectin-1 (human recombinant Gal1) (ligand)
chain: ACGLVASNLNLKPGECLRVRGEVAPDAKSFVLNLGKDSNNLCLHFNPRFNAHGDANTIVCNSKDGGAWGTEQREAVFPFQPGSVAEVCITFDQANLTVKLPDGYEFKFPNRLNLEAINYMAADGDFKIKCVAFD
modifications: DyLight 594 label in the FRET assay only
notes: Recombinant Gal1 made in-house; also called rhGal1; 594-Gal1
binds: all assays above
